Measured values published in PubChem BioAssay AID1508642 (National Center for Advancing Translational Sciences (NCATS), 2021).
In all, about 43,000 compounds went through this assay and about 200 (0.47%) were called active. Inconclusive results (about 12%) are left out. Calls come from the whole dose curve; as a rule, active = well fitted cell-killing curve with a large enough effect; inconclusive = small, poorly fitted or top-dose-only effect, or effect the other way; inactive = flat fitted curve, though single readings scatter. Some of the results follow.

Assay: Cell viability qHTS assay in S16 Pmp22-F2sN cells; note: nearly all actives have a fitted effect of over 65% in size
Details: S16 Pmp22-F2sN Schwann cells viability, CellTiter-Glo, 24 h; series mostly up to 57.5 µM; activity change, negative = cytotoxicity: at the top concentration
In short: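 Used to flag compounds lowering reporter output through toxicity, this quantitative HTS measures ATP-based CellTiter-Glo luminescence in S16 Pmp22-F2sN Schwann cells after 24 h compound exposure at 37C.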
% is set by controls: 0 for no effect and ±100 for the full control effect; potency is the fitted concentration of half-maximal effect.

Row | Compound | activity change, negative = cytotoxicity | Potency
1 | COc1ccc(C(=O)OC2=C(C(=O)c3ccccc3)N(C)S(=O)(=O)c3ccccc32)cc1OC | inactive: -18.8% | 
2 | Cc1ccc2c(CC(=O)Nc3ccc(S(=O)(=O)N4CCCCC4)cc3)coc2c1 | inactive: 1.9% | 
3 | Cc1ccc(Cl)cc1NC(=O)Cn1c(=O)oc2cc(S(=O)(=O)N3CCCC3)ccc21 | inactive: -2.82% | 
4 | Cc1ccc(-n2ncc3c(Nc4cccc(C)c4C)ncnc32)cc1 | inactive: 2.18% | 
5 | CCOc1ccccc1N(C)C(=O)C1CCCN(c2ncnc3c2nc2n3CCCCC2)C1 (centres undefined) | inactive: 2.97% | 
6 | Cc1cc(C)c2c(=O)nc(SCc3ccccc3C)n(C3CC3)c2n1 | inactive: -6.46% | 
7 | Cc1ccc(NC(=O)c2cc(-c3ccc(Br)s3)nc3ccccc23)cc1F |  | active: 31.6 µM
8 | CCOc1ccc(CCNC(=O)CCCn2c(=O)c3cccn3c3ccccc32)cc1 | inactive: 3.7% | 
9 | COc1ccc(C(=O)Nc2nnc(SCc3cc(=O)c4cc(C)cc(C)c4[nH]3)s2)cc1 | inactive: -7.79% | 
10 | Cn1c(=O)c2c(nc(SCC(=O)Nc3ccccc3F)n2Cc2ccc(Cl)cc2)n(C)c1=O | inactive: -1.43% | 
11 | CCc1ccccc1NC(=O)CCNS(=O)(=O)c1ccc2c(c1)CCN2C(=O)C1CC1 | inactive: 0.667% | 
12 | Cc1ccc(-n2ncc3c(NCCC4=CCCCC4)ncnc32)cc1 | inactive: 10.9% | 
13 | Cc1ccc(Cl)cc1NC(=O)C(C)n1nc(-c2ccccc2)ccc1=O (centres undefined) | inactive: -13.8% | 
14 | Cc1ccc(Cl)cc1N1CCN(C(=O)Cn2cnc3sc(C)c(S(=O)(=O)N4CCC(C)CC4)c3c2=O)CC1 | inactive: 1.6% | 
15 | COC(=O)c1scc(-c2ccc(C)cc2)c1S(=O)(=O)N1CCN(c2ccc(C(C)=O)cc2)CC1 | inactive: 11.2% | 
16 | Cc1nc2nc(NCc3ccc(Cl)cc3)[nH]n2c(=O)c1Cc1ccccc1 | inactive: -0.677% | 
17 | CCOC(=O)c1c(C)oc2nc(C)nc(NCc3ccc(F)cc3)c12 | inactive: -1.38% | 
18 | CCCn1c(CCC(=O)Nc2ccc(OCC)cc2)nc2cccnc21 | inactive: 8.55% | 
19 | CC1CCc2c(sc(NC(=O)C3c4ccccc4Oc4ccccc43)c2C#N)C1 (centres undefined) | inactive: 11.5% | 
20 | Cc1ccc(-n2c(=O)c3c(C)c(C)sc3n(CC(=O)NCc3ccccc3)c2=O)cc1C | inactive: 4.63% | 

Row | Compound | activity change, negative = cytotoxicity | Potency
21 | Cc1cc(C)cc(-n2c(SCC(=O)N3CCOCC3)nc3c([nH]c4ccccc43)c2=O)c1 | inactive: 7.98% | 
22 | Cc1ccc(CCNS(=O)(=O)c2c(C)nc3sc(C)c(C)n3c2=O)cc1 | inactive: 9.78% | 
23 | Cc1ccc(CNC(=O)c2ccc(CSCc3cccc(C)c3)o2)cc1 | inactive: 3.72% | 
24 | CC1CCN(S(=O)(=O)c2ccc3c(c2)N(CC(=O)NCCc2ccccc2)C(=O)CO3)CC1 | inactive: 21.8% | 
25 | COc1cccc(NC(=O)c2ccc3c(c2)CCN3S(C)(=O)=O)c1 | inactive: 17.3% | 
26 | Cc1noc(-c2ccc(NC(C)c3ccccc3)c([N+](=O)[O-])c2)n1 (centres undefined) | inactive: -0.587% | 
27 | COc1ccccc1NC(=O)c1ccc(CN2C(=O)C(C)=C(c3ccc(C)c(C)c3)S2(=O)=O)cc1 | inactive: -5.21% | 
28 | CC1(c2ccccc2)CC(C)(C)N(C(=O)c2cccc(Cl)c2)c2ccccc21 (centres undefined) | inactive: 12.6% | 
29 | Cc1cc2nn(-c3ccc(F)cc3)nc2cc1NC(=O)c1cccc2c(Cl)cccc12 | inactive: 13.8% | 
30 | CCOc1cc2c(cc1OCC)C(CC(=O)O)N(C(=O)Nc1ccccc1C(F)(F)F)CC2 (centres undefined) | inactive: 9.85% | 
31 | Cc1cc(C)nc(-n2nc(C)c3c2NC(=O)CC3c2cccc(O)c2)n1 (centres undefined) | inactive: -5.61% | 
32 | COc1cc(OC)c(NC(=O)Nc2cccc(OCc3cc(=O)n4ccccc4n3)c2)cc1Cl | inactive: 4.1% | 
33 | CCn1c(C)c(C)c2cc(C(=O)NCc3ccc(F)cc3)ccc21 | inactive: 19.9% | 
34 | COc1ccc(-n2cc(-c3ccccc3)c3c(Nc4ccc(OC)c(OC)c4)ncnc32)cc1 | inactive: -22% | 
35 | CCOC(=O)c1ccc2c(c1)N(Cc1ccc(F)cc1Cl)C(=O)c1ccccc1S2(=O)=O | inactive: 0.219% | 
36 | CCOC(=O)c1c(C)[nH]c(CCC(=O)NC(C)c2ccccc2)c1C (centres undefined) | inactive: 17.6% | 
37 | CCN(C(=O)c1sc2nc3n(c(=O)c2c1C)CCCCC3)c1ccc(OC)cc1 | inactive: 14% | 
38 | CCOC(=O)c1cn(CC(=O)Nc2ccc(OC)cc2OC)nn1 | inactive: 7.22% | 
39 | Fc1ccc(Nc2ncnc3onc(-c4ccc(Cl)cc4)c23)cc1Cl | inactive: -20.8% | 
40 | O=C(C1CCCN(S(=O)(=O)c2ccc(Br)s2)C1)N1CCN(c2ccccc2F)CC1 (centres undefined) | inactive: 12.5% | 

Row | Compound | activity change, negative = cytotoxicity | Potency
41 | CCOc1ccc(CCNC(=O)c2ccc3c(c2)N(Cc2ccc(C)cc2)CCS3)cc1 | inactive: 4.4% | 
42 | CC(C)Cc1ccc(S(=O)(=O)N2CCN(Cc3noc(CCC(=O)N4CCCCC4)n3)CC2)cc1 | inactive: -6.81% | 
43 | CC1=C(c2ccc(F)cc2)S(=O)(=O)N=C1N1CCC(C(=O)NCCc2ccccc2C)CC1 | inactive: -1.29% | 
44 | COc1ccc(C2C(C(=O)Nc3ccccc3)=C(C)Nc3nc(SCC(=O)c4ccc(C)cc4)nn32)cc1 (centres undefined) | inactive: 3.71% | 
45 | Cc1c(C(=O)Nc2ccc(-n3c(C)nc4ccccc4c3=O)cc2)cccc1[N+](=O)[O-] | inactive: -0.0679% | 
46 | Cc1ccc(Cl)cc1NC(=O)Cn1c(=O)n(CCC(=O)NCc2ccc3c(c2)OCO3)c(=O)c2sccc21 | inactive: 6.41% | 
47 | COC(=O)C(NC(=O)CCc1c(C)nc2c(-c3ccccc3)c(C)nn2c1C)C(C)C (centres undefined) | inactive: 0.8% | 
48 | CCCC(=O)Nc1nnc(S(=O)(=O)N2CCCCCC2)s1 | inactive: -8.72% | 
49 | Cc1ccc2c(=O)cc(C(=O)N(Cc3ccc(N(C)C)cc3)C3CCS(=O)(=O)C3)oc2c1 (centres undefined) | inactive: -3.29% | 
50 | CCCN1CCN(CCCNC(=O)Cn2nc(CC)n3c(cc4occc43)c2=O)CC1 | inactive: -1.4% | 
51 | Cc1cc(NC(=O)N(C)CCc2c(C)nn(C)c2C)ccc1Br | inactive: 8.56% | 
52 | CSc1ccc(CCNC(=O)CN2C(=O)c3cccnc3Oc3ccc(C)cc32)cc1 | inactive: 3.36% | 
53 | Cc1cc(F)ccc1NS(=O)(=O)c1c(C)nc2scc(C)n2c1=O | inactive: 0.889% | 
54 | CCc1cccc(C)c1NC(=O)CSc1nc2ccccc2nc1N1CCOCC1 | inactive: -15.6% | 
55 | CC1(C)O[C@H]2[C@@H](O1)[C@@H](C(=O)Nc1ccc(F)c(F)c1)O[C@@H]1OC(C)(C)O[C@@H]12 | inactive: 11.6% | 
56 | COc1cc(C2C(C(=O)Nc3ccc(C)cc3C)=C(C)Nc3nc4ccccc4n32)cc(OC)c1OC (centres undefined) | inactive: 2.36% | 
57 | Cc1ccc(S(=O)(=O)N(CCc2ccccc2)CC(=O)Nc2cc(C)ccc2C)cc1 | inactive: -3.3% | 
58 | CN(C)S(=O)(=O)c1ccc(C(=O)NC2CC(=O)N(c3ccc4c(c3)OCCO4)C2)cc1 (centres undefined) | inactive: -4.72% | 
59 | CCOC(=O)c1cc(-c2ccc(C)cc2)n(CCC(=O)Nc2ccc(C(C)C)cc2)c1C | inactive: -28.6% | 
